Only a part is listed here, and it is no random draw. The list includes weakly bound sequences.
What was measured:
Assay in all cases: protein-binding microarray (PBM)
Details in all cases: PBM: ~300 nM protein, 6 mM HEPES pH 7.8, 80 mM KCl, 0.5 mM EDTA, 0.5 mM EGTA, 6% glycerol, 35 ng/ul poly-dIdC, 1% milk, 1 h, room temperature; Ap Aiptasia and Nv Nematostella (sea anemones) / Co Capsaspora / Aq Amphimedon (sponge) / Dm Drosophila / Hu human; RHD is the Rel homology domain; high values mean tight binding; most listed sequences are background and not binding sites; double strand, one strand shown
[1] = biological target: T1, GST-Ap-NF-kB RHD (UniProt A0A913YAJ5)
T1 sequence: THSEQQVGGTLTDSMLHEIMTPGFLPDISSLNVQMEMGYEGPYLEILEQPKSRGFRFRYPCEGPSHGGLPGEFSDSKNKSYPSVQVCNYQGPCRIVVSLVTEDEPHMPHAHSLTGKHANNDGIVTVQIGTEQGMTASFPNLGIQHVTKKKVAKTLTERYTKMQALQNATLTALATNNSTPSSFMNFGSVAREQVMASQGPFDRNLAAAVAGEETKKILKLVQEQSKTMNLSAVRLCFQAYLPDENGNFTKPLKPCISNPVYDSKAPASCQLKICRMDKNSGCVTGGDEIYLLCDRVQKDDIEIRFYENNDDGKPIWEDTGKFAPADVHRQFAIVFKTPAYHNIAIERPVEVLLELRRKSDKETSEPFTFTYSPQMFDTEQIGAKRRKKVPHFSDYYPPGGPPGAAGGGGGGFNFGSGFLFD

[2] = biological target: T2, GST-Nv-NF-kB (Cys allele) (UniProt E5G601)
T2 sequence: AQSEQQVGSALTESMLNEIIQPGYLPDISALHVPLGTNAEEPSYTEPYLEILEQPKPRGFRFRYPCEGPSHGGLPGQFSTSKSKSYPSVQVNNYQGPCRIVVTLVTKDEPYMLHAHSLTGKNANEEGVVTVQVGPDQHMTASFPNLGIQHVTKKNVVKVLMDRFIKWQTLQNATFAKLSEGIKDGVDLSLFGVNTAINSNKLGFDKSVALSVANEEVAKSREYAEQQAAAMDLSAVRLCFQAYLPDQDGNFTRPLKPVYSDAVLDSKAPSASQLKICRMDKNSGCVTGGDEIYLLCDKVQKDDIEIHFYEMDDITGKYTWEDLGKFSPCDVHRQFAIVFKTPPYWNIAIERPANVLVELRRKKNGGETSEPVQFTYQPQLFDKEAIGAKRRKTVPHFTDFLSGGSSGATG

[3] = biological target: T3, GST-Co-NF-kB (UniProt F1ARL5)
T3 sequence: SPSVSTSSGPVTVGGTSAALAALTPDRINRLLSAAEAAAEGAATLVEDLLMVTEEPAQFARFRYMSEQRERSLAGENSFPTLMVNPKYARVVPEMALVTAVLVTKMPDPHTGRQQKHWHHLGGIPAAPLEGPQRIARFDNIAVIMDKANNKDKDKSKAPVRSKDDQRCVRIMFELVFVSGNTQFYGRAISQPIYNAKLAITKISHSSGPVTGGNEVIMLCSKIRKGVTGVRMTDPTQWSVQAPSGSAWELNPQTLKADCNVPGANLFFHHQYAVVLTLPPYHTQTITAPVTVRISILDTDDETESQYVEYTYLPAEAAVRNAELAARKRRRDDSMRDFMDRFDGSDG

[4] = biological target: T4, GST-Dm-Relish (UniProt Q94527)
T4 sequence: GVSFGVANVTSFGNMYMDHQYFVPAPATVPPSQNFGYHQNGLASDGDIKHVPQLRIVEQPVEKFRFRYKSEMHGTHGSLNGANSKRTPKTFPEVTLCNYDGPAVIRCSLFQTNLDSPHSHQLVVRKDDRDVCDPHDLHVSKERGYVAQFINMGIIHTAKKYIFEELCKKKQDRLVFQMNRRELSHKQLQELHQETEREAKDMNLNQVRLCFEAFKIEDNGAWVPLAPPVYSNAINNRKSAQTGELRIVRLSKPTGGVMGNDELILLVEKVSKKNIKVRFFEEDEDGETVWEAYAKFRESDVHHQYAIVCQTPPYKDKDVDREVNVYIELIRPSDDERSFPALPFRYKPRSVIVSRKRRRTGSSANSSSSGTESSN

[5] = biological target: T5, GST-Aq-NF-kB (UniProt A9Y5G7)
T5 sequence: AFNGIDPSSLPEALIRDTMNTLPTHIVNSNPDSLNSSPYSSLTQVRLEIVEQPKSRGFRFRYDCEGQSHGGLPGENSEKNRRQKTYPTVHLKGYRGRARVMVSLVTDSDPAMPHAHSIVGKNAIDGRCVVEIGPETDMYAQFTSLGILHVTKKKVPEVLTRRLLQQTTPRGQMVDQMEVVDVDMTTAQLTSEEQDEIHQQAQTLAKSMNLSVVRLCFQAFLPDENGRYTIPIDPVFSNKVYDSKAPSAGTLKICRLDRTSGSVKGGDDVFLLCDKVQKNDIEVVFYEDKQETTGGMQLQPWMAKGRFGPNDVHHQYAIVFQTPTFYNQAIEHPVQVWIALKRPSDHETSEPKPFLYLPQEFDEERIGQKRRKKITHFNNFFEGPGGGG

Row | Sequence | binding signal [1] [z-score] | binding signal [2] [z-score] | binding signal [3] [z-score] | binding signal [4] [z-score] | binding signal [5] [z-score]
1 | CCGATTAACATCATATGAAGTGTTGATGTTAATCGGGTCTTGATTCGCTTGACGCTGCTG | -0.866 | 0.272 | -0.273 | -0.192 | -0.5
2 | CCGATTAACATCAGGGAGCCGTATGATGTTAATCGGGTCTTGATTCGCTTGACGCTGCTG | 1.18 | 0.127 | 0.12 | -0.59 | 0.316
3 | CCGATTAACATCAAGATATTCCCTGATGTTAATCGGGTCTTGATTCGCTTGACGCTGCTG | 4.46 | 4.57 | 3.05 | 2.34 | 4.02
4 | CCGATTAACATCAGTTTAGTTCGTGATGTTAATCGGGTCTTGATTCGCTTGACGCTGCTG | -0.712 | 0.0638 | 0.612 | -0.0625 | -0.511
5 | CCGATTAACATCATAGAGACACGTGATGTTAATCGGGTCTTGATTCGCTTGACGCTGCTG | -0.367 | -0.329 | 0.185 | -0.623 | -0.25
6 | CCGATTAACATCACGAGAATTCCTGATGTTAATCGGGTCTTGATTCGCTTGACGCTGCTG | 0.096 | 0.208 | 0.366 | 0.645 | 0.604
7 | CCGATTAACATCATTATCTCATATGATGTTAATCGGGTCTTGATTCGCTTGACGCTGCTG | -0.316 | -0.318 | -0.25 | -0.238 | -0.391
8 | CCGATTAACATCAGGAATATTCATGATGTTAATCGGGTCTTGATTCGCTTGACGCTGCTG | -0.259 | 0.385 | -0.474 | -0.472 | -0.0688
9 | CCGATTAACATCAAAAATTCCAATGATGTTAATCGGGTCTTGATTCGCTTGACGCTGCTG | -0.0716 | -0.181 | 0.122 | 0.906 | 0.956

— paper PMC5700166
